Data reported in PubChem BioAssay AID686979 (National Center for Advancing Translational Sciences (NCATS), 2013).
Where “and” joins values, the source holds several entries; their conditions need not be identical. Identical values can stand only once. The whole screen tested about 420,000 compounds, of which about 50,000 (12%) were called active. Inconclusive means that the source gave no clear call. Such entries were picked first, then a sample of the others. Calls come from the whole dose curve; as a rule, active = well fitted inhibition curve with a large enough effect; inconclusive = small, poorly fitted or top-dose-only effect; inactive = flat fitted curve, though single readings scatter. Potencies of inconclusive entries are left out as doubtful fits.

Experiment: qHTS for Inhibitors of human tyrosyl-DNA phosphodiesterase 1 (TDP1): qHTS in cells in presence of CPT; note: nearly all actives have a fitted effect of over 55% in size
Conditions: chicken DT40 Tdp1-/-;hTDP1 cells + 20 nM CPT, ATP luminescence, 48 h; activity change, negative = growth inhibition: at 46.2 µM (top of the series)
In short: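 Chicken DT40 Tdp1-/- cells stably complemented with human TDP1 were seeded at 400 cells/well in medium containing 20 nM camptothecin, exposed to pin-transferred compounds, and grown at 37 °C for at least 48 hr. Viability was read as ATP luminescence.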
% is set by controls: 0 for no effect and ±100 for the full control effect; potency is the fitted concentration of half-maximal effect; tags give direction and shape of the fitted curve.

Question: For `CCCCC(=O)NC(=S)NNC(=O)CCc1ccccc1`, which Potency is on record?
Answer: active: 20.6 µM

Question: Which Potency does the source give for `CCOc1ccccc1N1CCN(C(=S)Nc2ccc(S(N)(=O)=O)cc2)CC1` here?
Answer: inconclusive [inhibitor, single point]

Question: For `Cc1onc(-c2ccccc2)c1C(=O)NNC(=S)NC(=O)c1ccc(Br)cc1`, which Potency is on record?
Answer: inconclusive [inhibitor, single point]

Question: For `Cc1cc(C)c2ccc(N)nc2c1O`, which Potency is on record?
Answer: active: 23.1 µM

Question: For `COc1ccccc1/C=C(/CC(=O)NCc1ccccc1)c1nc2ccccc2s1`, which Potency is on record?
Answer: inconclusive [inhibitor, single point]

Question: For `CCOc1cc(C)c(Cl)cc1S(=O)(=O)NCc1ccc2c(c1)OCO2`, which Potency is on record?
Answer: inconclusive [inhibitor, single point]

Question: For `CCc1cccc(N=c2c([N+](=O)[O-])nn(-c3ccc4c(c3)OCCO4)n2O)c1`, which Potency is on record?
Answer: active: 1.84 µM

Question: With `COc1cccc(-c2n[nH]c3c2C(c2cccc(O)c2)N(C)C3=O)c1` (stereo not drawn) as the compound, how does the Potency read?
Answer: inconclusive [inhibitor, single point]

Question: For `Cc1cc(Cl)c(OCCN2C(=O)NC(C)(C)C2=O)c(Br)c1`, which Potency is on record?
Answer: inconclusive [inhibitor, single point]

Question: With `CCN(CC)c1ccc(N=C2C=CC(=O)C=C2NC(C)=O)cc1` as the compound, how does the Potency read?
Answer: active: 5.17 µM

Question: Which Potency does the source give for `CCCC(C(=O)NCc1ccco1)N(C(=O)CNS(=O)(=O)c1ccccc1)c1ccccc1OC` (stereo not drawn) here?
Answer: inconclusive [inhibitor, single point]

Question: Which “activity change, negative = growth inhibition” value does the source give for `COc1ccc(NC(=O)COc2cccc(-n3cnnn3)c2)cc1` here?
Answer: inactive: -3.16%

Question: With `COc1ccccc1CCN=C(N)NS(=O)(=O)c1ccc(C)cc1` as the compound, how does the Potency read?
Answer: inconclusive [inhibitor, single point]

Question: For `COCCn1c(=S)[nH]c2cc(C(=O)N3CCc4ccccc4C3)ccc2c1=O`, which “activity change, negative = growth inhibition” value is on record?
Answer: inactive: -16.7%

Question: Which “activity change, negative = growth inhibition” value does the source give for `O=C(COC(=O)COc1ccc(Br)cc1)NCc1ccccc1` here?
Answer: inactive: 4.8%

Question: Which Potency does the source give for `O=C1N/C(=N/N=C/c2ccccc2O)SC1Cc1ccc(F)cc1` (stereo not drawn) here?
Answer: active: 0.184 µM

Question: Which Potency does the source give for `COc1ccc(CNC(=O)c2cnn(-c3ccc(OC)cc3)c2C2CCN(C(=O)OC(C)(C)C)CC2)cc1` here?
Answer: inconclusive [inhibitor, single point]

Question: Which Potency does the source give for `CCOc1cc(OCC)cc(C(=O)Nc2cccc(C(C)=O)c2)c1` here?
Answer: inconclusive [inhibitor, single point]

Question: For `CCN(CC)C(=O)C1=C(C)N(Cc2ccc(C(C)(C)C)cc2)C(=O)C(CC(=O)NC2CCCCC2)C1` (stereo not drawn), which Potency is on record?
Answer: active: 14.6 µM

Question: Which Potency does the source give for `O=C(Nc1ccccc1N1CCOCC1)c1ccc([N+](=O)[O-])s1` here?
Answer: active: 16.4 µM

Question: Which Potency does the source give for `CCOC(=O)C(=O)N(C)c1c(CC)nc2c(OCc3cc(Cl)cc(Cl)c3)cccn12` here?
Answer: active: 18.4 µM

Question: Which Potency does the source give for `CN(CC(=O)Nc1cccc(C(F)(F)F)c1)Cc1ccccc1` here?
Answer: inconclusive [inhibitor, single point]

Question: With `Cc1cc(Br)ccc1OCCOCCN1CCCC1` as the compound, how does the Potency read?
Answer: inconclusive [inhibitor, single point]

Question: Which Potency does the source give for `COc1cccc(C(=O)COc2cccc(NC(=O)c3cccc([N+](=O)[O-])c3)c2)c1` here?
Answer: inconclusive [inhibitor, single point]

Question: For `COc1ccccc1NC(=O)NCc1nc(-c2ccc(C(F)(F)F)cc2)no1`, which Potency is on record?
Answer: inconclusive [inhibitor, single point]

Question: With `CS(=O)(=O)CCC(C(=O)N1CCOCC1)N1C(=O)c2cc(Cl)c(Cl)cc2C1=O` (stereo not drawn) as the compound, how does the “activity change, negative = growth inhibition” value read?
Answer: inactive: -3.24%

Question: Which Potency does the source give for `O=C(CSc1nc2ccccc2c(=O)n1Cc1ccc(C(=O)NC2CC2)cc1)NCc1ccco1` here?
Answer: inconclusive [inhibitor, single point]

Question: For `CCc1ccccc1NC(=O)CN1CCN(C(=O)C(C)NC(=O)c2ccc(Cl)cc2)CC1` (stereo not drawn), which Potency is on record?
Answer: inconclusive [inhibitor, partial curve, poor fit]

Question: With `CCCCOc1ccc(S(=O)(=O)Nc2ccc(-c3ccc(N4CCCCC4)nn3)cc2)cc1` as the compound, how does the Potency read?
Answer: active: 14.6 µM

Question: For `O=C(Nc1nnc(C2CC2)s1)c1n[nH]c(=O)c2ccccc12`, which “activity change, negative = growth inhibition” value is on record?
Answer: inactive: -19.6%

Question: With `CCC(=O)Nc1ccc(C=C(C(C)=O)C(C)=O)cc1` as the compound, how does the Potency read?
Answer: inconclusive [inhibitor, single point]

Question: For `CCC(=O)Nc1cc(-c2nc3cc(C)cc(C)c3o2)ccc1C`, which Potency is on record?
Answer: inconclusive [inhibitor, single point]

Question: Which “activity change, negative = growth inhibition” value does the source give for `CC1=CCC[C@@H]2[C@@](C)(CC/C(C)=C/C(=O)O)[C@H](C)CC[C@@]12C` here?
Answer: inactive: -25.2%

Question: Which Potency does the source give for `CCOc1cc(C(=S)N2CCCCC2)ccc1OS(=O)(=O)c1ccc(Br)cc1` here?
Answer: active: 20.6 µM

Question: Which “activity change, negative = growth inhibition” value does the source give for `O=C(CSc1nnc2ccc(-c3ccccn3)nn12)NCC1CCCO1` (stereo not drawn) here?
Answer: inactive: -0.0098%

Question: For `CC(C)(C)OC(=O)N1CCN(c2ccc(CNC(=O)c3ccc(Cl)cc3)cc2)CC1`, which Potency is on record?
Answer: inconclusive [inhibitor, partial curve]

Question: With `Cc1ccccc1-c1cnc2c(c1)C(=O)N([C@H](C)CO)C[C@@H](C)[C@H](CN(C)C(=O)c1ccncc1)O2` as the compound, how does the “activity change, negative = growth inhibition” value read?
Answer: inactive: 5.09%

Question: With `CCN(CC)S(=O)(=O)c1ccc(C)c(NC(=O)COc2ccc(Br)cc2Cl)c1` as the compound, how does the “activity change, negative = growth inhibition” value read?
Answer: inactive: -20.7%

Question: Which Potency does the source give for `CCN(CC)c1nc(Oc2ccc(C(=O)OC)cc2)nc(N2CCOCC2)n1` here?
Answer: inconclusive [inhibitor, single point]

Question: With `CC(C)NC(=O)C(=O)NNC(=O)CCc1ccccc1` as the compound, how does the “activity change, negative = growth inhibition” value read?
Answer: inactive: 14.4%

Question: Which Potency does the source give for `CCc1cc2c(cc3c(=O)n(CC(=O)NC4CCC(C)CC4)nc(CC)n32)s1` (stereo not drawn) here?
Answer: inconclusive [inhibitor, single point]

Question: Which “activity change, negative = growth inhibition” value does the source give for `CCc1ccccc1NC(=O)CN(C)C(=O)c1cc(C2CC2)nn1-c1ccccc1` here?
Answer: inactive: -25.9%

Question: For `COc1ccc(NC(=O)C2CCN(S(=O)(=O)c3cccc4nonc34)CC2)c(OC)c1`, which “activity change, negative = growth inhibition” value is on record?
Answer: inactive: 1.82%

Question: With `CCCN(CCC)C(=O)CCSCCC(=O)N(CCC)CCC` as the compound, how does the “activity change, negative = growth inhibition” value read?
Answer: inactive: -23.6%

Question: With `CCOC(=O)c1ccc(NC(=O)c2cccc3c(=O)c4c([nH]c23)CCCC4)cc1` as the compound, how does the Potency read?
Answer: inconclusive [inhibitor, single point]

Question: For `Cc1c(NC(=O)CCCCCN2C(=O)c3ccccc3C2=O)c(=O)n(-c2ccccc2)n1C`, which “activity change, negative = growth inhibition” value is on record?
Answer: inactive: -26.5%

Question: For `Cc1ccc(S(=O)(=O)N2CCN(Cc3cc(=O)n4ccccc4n3)CC2)c(C)c1`, which Potency is on record?
Answer: inconclusive [inhibitor, partial curve]

Question: Which Potency does the source give for `CC(=O)c1cccc(CN(C)CC2CCCN(CCc3ccccc3C)C2)c1` (stereo not drawn) here?
Answer: active: 16.4 µM

Question: Which “activity change, negative = growth inhibition” value does the source give for `Cc1csc(SCC(=O)Nc2ccc3c(c2)OCCO3)n1` here?
Answer: inactive: -17.5%

Question: For `CCOC(=O)c1sc2nc(N3CCOCC3)c3c(c2c1N)CCCC3`, which Potency is on record?
Answer: inconclusive [inhibitor, partial curve]

Question: With `CC(CN1CCCCC1)NC(=O)c1cc(-c2ccccn2)nc2ccc(Cl)cc12` (stereo not drawn) as the compound, how does the “activity change, negative = growth inhibition” value read?
Answer: inactive: -1.59%

Question: With `CCOc1ccc(C(NC(C)=O)c2cc(Cl)c3cccnc3c2O)cc1` (stereo not drawn) as the compound, how does the Potency read?
Answer: active: 3.16 µM

Question: Which Potency does the source give for `CCN(CC)CCNC(=O)c1sc2nc(C)cc(C)c2c1-n1cccc1` here?
Answer: inconclusive [inhibitor, single point]

Question: For `CN1CC=C2C(C#N)=C(N)C(C#N)(C#N)[C@H](c3cccs3)[C@H]2C1`, which Potency is on record?
Answer: inconclusive [inhibitor, single point]

Question: Which Potency does the source give for `C=CCNC(=O)c1onc(CSc2cc(C)cc(C)c2)c1C(=O)NCC=C` here?
Answer: inconclusive [inhibitor, single point]

Question: With `COc1ccc(CCn2c(C)cc(C(=O)CSc3nnnn3-c3ccccc3)c2C)cc1OC` as the compound, how does the Potency read?
Answer: inconclusive [inhibitor, full curve]

Question: Which Potency does the source give for `C=CCNC(=S)N1CCC(C(=O)c2ccc(OC)cc2)CC1` here?
Answer: inconclusive [inhibitor, single point]

Question: Which Potency does the source give for `COc1ccc(C)cc1-n1nnnc1SCC(=O)Nc1cc(C)on1` here?
Answer: inconclusive [inhibitor, partial curve, poor fit]

Question: For `Cc1cc(C)c(O)c(CN(C)Cc2cc(Cl)cc(Cl)c2O)c1`, which Potency is on record?
Answer: inconclusive [inhibitor, single point]

Question: Which Potency does the source give for `CCOc1cccc2cc(C(=O)NCc3ccc(Cl)cc3)c(=N)oc12` here?
Answer: inconclusive [inhibitor, single point]

Question: With `O=C(Nc1ccc(Br)cc1F)c1ccc2nc(CCc3ccccc3)oc2c1` as the compound, how does the Potency read?
Answer: active: 7.31 µM

Question: Which “activity change, negative = growth inhibition” value does the source give for `CC1CCCN(S(=O)(=O)c2cc3c4c(c2)CCN4C(=O)CC3)C1` (stereo not drawn) here?
Answer: inactive: 21.3%

Question: Which Potency does the source give for `CCc1ccc(S(=O)(=O)ON2C(=O)c3ccccc3C2=O)cc1` here?
Answer: active: 7.31 µM

Question: For `CSCCC(NC(=O)c1ccco1)C(=O)N1CC=C(c2ccccc2)CC1` (stereo not drawn), which Potency is on record?
Answer: inconclusive [inhibitor, single point]

Question: With `O=C1c2[nH]nc(-c3ccccc3O)c2C(c2cccc(Br)c2)N1Cc1ccncc1` (stereo not drawn) as the compound, how does the Potency read?
Answer: active: 2.91 µM

Question: For `Clc1ccccc1-c1nnc2sc(-c3ccccn3)nn12`, which Potency is on record?
Answer: inconclusive [inhibitor, partial curve]

Question: For `CCn1c(CN2CCCCC2)nc2cc(NC(=O)COc3cc(C)ccc3C(C)C)ccc21`, which Potency is on record?
Answer: active: 18.4 µM

Question: With `O=C(c1ccc(Cl)s1)N1CCN(c2ncccn2)CC1` as the compound, how does the “activity change, negative = growth inhibition” value read?
Answer: inactive: -25.5%

Question: For `COc1ccc(Nc2nc(-c3ccccc3)c3cc(Br)ccc3n2)cc1`, which Potency is on record?
Answer: inconclusive [inhibitor, single point]

Question: For `Cc1ccc(N(C)S(=O)(=O)c2ccc(-c3cnc(C4CC4)o3)cc2)cc1`, which Potency is on record?
Answer: active: 920 nM and active: 29.1 nM

Question: With `CCCN(CC1CC1)S(=O)(=O)c1ccc(-n2cnnn2)c(OC)c1` as the compound, how does the “activity change, negative = growth inhibition” value read?
Answer: inactive: -3.54%

Question: Which “activity change, negative = growth inhibition” value does the source give for `O=C(NCCN1CCN(c2cccc(Cl)c2)CC1)c1cccn2c(=O)c3ccccc3nc12` here?
Answer: inactive: -2.38%

Question: For `CC1CCCCN1C(=O)CN1CCN(S(=O)(=O)c2ccc(Br)cc2Cl)CC1` (stereo not drawn), which Potency is on record?
Answer: inconclusive [inhibitor, single point]
